Some of the results follow.
Key:
Test in all cases: glycan array binding signal (z-score within array); higher = stronger binding
Details in all cases: glycan notation: IUPAC condensed, linker removed
[1] = biological target: GlcNAc(a1-4)Gal(b1-4)GalNAc
Summary of the method: (§1)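 Arrays were curated from the Consortium for Functional Glycomics database, 3228 in total, and kept only where the protein sequence was available. Binding is expressed as a within-array Z-score. This score was averaged across arrays of the same protein sequence at different concentrations or buffers and across linkers, and negative values can be read as non-binding.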

[2] = biological target: GlcNAc(a1-4)Gal(b1-4)GlcNAc
Summary of the method: as §1

[3] = biological target: GlcNAc(a1-4)Gal(b1-4)GlcNAc(b1-3)Gal(b1-4)Glc
Summary of the method: as §1

[4] = biological target: GlcNAc(a1-4)Gal(b1-4)GlcNAc(b1-3)Gal(b1-4)GlcNAc
Summary of the method: as §1

[5] = biological target: GlcNAc(a1-4)Gal(b1-4)GlcNAc(b1-3)Gal(b1-4)GlcNAc(b1-3)Gal(b1-4)GlcNAc
Summary of the method: as §1

[6] = biological target: GlcNAc(a1-4)Gal(b1-4)GlcNAc(b1-3)Gal(b1-4)[Fuc(a1-3)]GlcNAc(b1-3)Gal(b1-4)[Fuc(a1-3)]GlcNAc
Summary of the method: as §1

[7] = biological target: GlcNAc(a1-6)Gal(b1-4)GlcNAc
Summary of the method: as §1

[8] = biological target: GlcNAc(b1-2)Gal(b1-3)GalNAc
Summary of the method: as §1

[9] = biological target: GlcNAc(b1-2)Man(a1-3)[GlcNAc(b1-2)Man(a1-6)]Man(b1-4)GlcNAc(b1-4)GlcNAc
Summary of the method: as §1

[10] = biological target: GlcNAc(b1-2)Man(a1-3)[GlcNAc(b1-2)Man(a1-6)]Man(b1-4)GlcNAc(b1-4)[Fuc(a1-6)]GlcNAc
Summary of the method: as §1

[11] = biological target: GlcNAc(b1-2)[GlcNAc(b1-4)]Man(a1-3)[GlcNAc(b1-2)Man(a1-6)]Man(b1-4)GlcNAc(b1-4)GlcNAc
Summary of the method: as §1

[12] = biological target: GlcNAc(b1-3)Gal
Summary of the method: as §1

[13] = biological target: GlcNAc(b1-3)Gal(b1-3)GalNAc
Summary of the method: as §1

[14] = biological target: GlcNAc(b1-3)Gal(b1-4)Glc
Summary of the method: as §1

[15] = biological target: GlcNAc(b1-3)Gal(b1-4)GlcNAc
Summary of the method: as §1

[16] = biological target: GlcNAc(b1-3)Gal(b1-4)GlcNAc(b1-3)Gal(b1-4)GlcNAc
Summary of the method: as §1

[17] = biological target: GlcNAc(b1-3)GalNAc
Summary of the method: as §1

[18] = biological target: GlcNAc(b1-3)Man
Summary of the method: as §1

[19] = biological target: GlcNAc(b1-3)[GlcNAc(b1-4)][GlcNAc(b1-6)]GlcNAc
Summary of the method: as §1

[20] = biological target: GlcNAc(b1-3)[GlcNAc(b1-6)]Gal(b1-4)GlcNAc
Summary of the method: as §1

[21] = biological target: GlcNAc(b1-3)[GlcNAc(b1-6)]GalNAc
Summary of the method: as §1

[22] = biological target: GlcNAc(b1-4)Gal(b1-4)GlcNAc
Summary of the method: as §1

[23] = biological target: GlcNAc(b1-4)GlcNAc
Summary of the method: as §1

[24] = biological target: GlcNAc(b1-4)GlcNAc(b1-4)GlcNAc
Summary of the method: as §1

[25] = biological target: GlcNAc(b1-4)GlcNAc(b1-4)GlcNAc(b1-4)GlcNAc(b1-4)GlcNAc
Summary of the method: as §1

[26] = biological target: GlcNAc(b1-4)GlcNAc(b1-4)GlcNAc(b1-4)GlcNAc(b1-4)GlcNAc(b1-4)GlcNAc
Summary of the method: as §1

[27] = biological target: GlcNAc(b1-4)[GlcNAc(b1-6)]GalNAc
Summary of the method: as §1

[28] = biological target: GlcNAc(b1-6)Gal(b1-4)GlcNAc
Summary of the method: as §1

[29] = biological target: GlcNAc(b1-6)GalNAc
Summary of the method: as §1

[30] = biological target: GlcNAc3Prop(b1-4)GlcNAc
Summary of the method: as §1

[31] = biological target: GlcNAc6S(b1-3)Gal(b1-4)GlcNAc
Summary of the method: as §1

[32] = biological target: Kdn(a2-3)Gal(b1-3)GalNAc
Summary of the method: as §1

[33] = biological target: Kdn(a2-3)Gal(b1-3)GlcNAc
Summary of the method: as §1

[34] = biological target: Kdn(a2-3)Gal(b1-4)Glc
Summary of the method: as §1

[35] = biological target: Kdn(a2-3)Gal(b1-4)GlcNAc
Summary of the method: as §1

[36] = biological target: Kdn(a2-3)Gal(b1-4)[Fuc(a1-3)]GlcNAc
Summary of the method: as §1

[37] = biological target: Kdn(a2-6)Gal(b1-4)GlcNAc
Summary of the method: as §1

[38] = biological target: Man(a1-2)Man(a1-2)Man(a1-3)Man
Summary of the method: as §1

[39] = biological target: Man(a1-2)Man(a1-2)Man(a1-6)[Man(a1-3)]Man
Summary of the method: as §1

[40] = biological target: Man(a1-2)Man(a1-3)Man
Summary of the method: as §1

[41] = biological target: Man(a1-2)Man(a1-3)[Man(a1-2)Man(a1-6)]Man
Summary of the method: as §1

[42] = biological target: Man(a1-2)Man(a1-3)[Man(a1-2)Man(a1-6)]Man(a1-6)[Man(a1-2)Man(a1-2)Man(a1-3)]Man
Summary of the method: as §1

[43] = biological target: Man(a1-2)Man(a1-3)[Man(a1-2)Man(a1-6)]Man(a1-6)[Man(a1-2)Man(a1-2)Man(a1-3)]Man(b1-4)GlcNAc(b1-4)GlcNAc
Summary of the method: as §1

[44] = biological target: Man(a1-2)Man(a1-3)[Man(a1-6)]Man(a1-6)[Man(a1-2)Man(a1-3)]Man(b1-4)GlcNAc(b1-4)GlcNAc
Summary of the method: as §1

[45] = biological target: Man(a1-2)Man(a1-6)[Man(a1-3)]Man(a1-6)[Man(a1-2)Man(a1-2)Man(a1-3)]Man
Summary of the method: as §1

[46] = biological target: Man(a1-2)Man(a1-6)[Man(a1-3)]Man(a1-6)[Man(a1-2)Man(a1-2)Man(a1-3)]Man(b1-4)GlcNAc(b1-4)GlcNAc
Summary of the method: as §1

[47] = biological target: Man(a1-3)[Man(a1-6)]Man
Summary of the method: as §1

[48] = biological target: Man(a1-3)[Man(a1-6)]Man(a1-6)[Man(a1-2)Man(a1-3)]Man(b1-4)GlcNAc(b1-4)GlcNAc
Summary of the method: as §1

[49] = biological target: Man(a1-3)[Man(a1-6)]Man(a1-6)[Man(a1-3)]Man
Summary of the method: as §1

[50] = biological target: Man(a1-3)[Man(a1-6)]Man(a1-6)[Man(a1-3)]Man(b1-4)GlcNAc(b1-4)GlcNAc
Summary of the method: as §1

[51] = biological target: Man(a1-3)[Man(a1-6)]Man(b1-4)GlcNAc(b1-4)GlcNAc
Summary of the method: as §1

[52] = biological target: Man(a1-6)Man
Summary of the method: as §1

[53] = biological target: Man(b1-4)GlcNAc
Summary of the method: as §1

[54] = biological target: Neu5Ac(a2-3)Gal
Summary of the method: as §1

[55] = biological target: Neu5Ac(a2-3)Gal(b1-3)GalNAc
Summary of the method: as §1

[56] = biological target: Neu5Ac(a2-3)Gal(b1-3)GalNAc(b1-3)Gal(a1-4)Gal(b1-4)Glc
Summary of the method: as §1

[57] = biological target: Neu5Ac(a2-3)Gal(b1-3)GalNAc(b1-4)[Neu5Ac(a2-3)]Gal(b1-4)Glc
Summary of the method: as §1

[58] = biological target: Neu5Ac(a2-3)Gal(b1-3)GalNAc6S
Summary of the method: as §1

[59] = biological target: Neu5Ac(a2-3)Gal(b1-3)GlcNAc
Summary of the method: as §1

[60] = biological target: Neu5Ac(a2-3)Gal(b1-3)GlcNAc(b1-2)Man(a1-3)[Neu5Ac(a2-3)Gal(b1-3)GlcNAc(b1-2)Man(a1-6)]Man(b1-4)GlcNAc(b1-4)GlcNAc
Summary of the method: as §1

[61] = biological target: Neu5Ac(a2-3)Gal(b1-3)GlcNAc(b1-3)Gal(b1-3)GlcNAc
Summary of the method: as §1

[62] = biological target: Neu5Ac(a2-3)Gal(b1-3)GlcNAc(b1-3)Gal(b1-4)GlcNAc
Summary of the method: as §1

[63] = biological target: Neu5Ac(a2-3)Gal(b1-3)GlcNAc(b1-3)GalNAc
Summary of the method: as §1

[64] = biological target: Neu5Ac(a2-3)Gal(b1-3)GlcNAc6S
Summary of the method: as §1

[65] = biological target: Neu5Ac(a2-3)Gal(b1-3)[Fuc(a1-4)]GlcNAc
Summary of the method: as §1

[66] = biological target: Neu5Ac(a2-3)Gal(b1-3)[Fuc(a1-4)]GlcNAc(b1-3)Gal(b1-3)[Fuc(a1-4)]GlcNAc
Summary of the method: as §1

[67] = biological target: Neu5Ac(a2-3)Gal(b1-3)[Fuc(a1-4)]GlcNAc(b1-3)Gal(b1-4)[Fuc(a1-3)]GlcNAc
Summary of the method: as §1

[68] = biological target: Neu5Ac(a2-3)Gal(b1-3)[Neu5Ac(a2-3)Gal(b1-4)]GlcNAc
Summary of the method: as §1

[69] = biological target: Neu5Ac(a2-3)Gal(b1-3)[Neu5Ac(a2-6)]GalNAc
Summary of the method: as §1

[70] = biological target: Neu5Ac(a2-3)Gal(b1-4)Glc
Summary of the method: as §1

Measured: glycan array binding signal (z-score)

B1: GH98CBM51-1 (Streptococcus pneumoniae) (protein)
chain: MTYLSDMDWSSATHGDIDKTKTVQKDAPFTTGNKGEHTKISLLTSDDKVKYFDKGIGTVADSPSVISYDISGQGFEKFETYIGIDQSANSSRSDHAVVDRIEIEIDGKVVYSSSVTNPEGFRYNTQAQFISVTIPQNAKKISLKSFAGEHTWGDEVVFADAKLIKTVST
-0.187: [12] | [16] | [36] | [43]
-0.166: [60]
-0.191: [30] | [34] | [62]
-0.164: [29]
-0.183: [19] | [63] | [67]
-0.194: [7] | [17] | [59]
-0.188: [35] | [51] | [56] | [65] | [68] | [70]
-0.173: [6]
-0.197: [8]
-0.193: [45] | [47] | [61]
-0.182: [9] | [33]
-0.18: [13]
-0.185: [50]
-0.19: [14] | [31] | [40] | [49] | [55] | [57]
-0.189: [1] | [3] | [20] | [22] | [23] | [39] | [69]
-0.186: [2] | [4] | [11] | [41] | [42]
-0.181: [10] | [44]
-0.195: [25] | [26] | [54]
-0.128: [5]
-0.184: [46] | [58] | [66]
-0.145: [53]
-0.196: [15] | [24] | [28] | [64]
-0.192: all other assays above
